To fix the notation:
B1: TPR 5TU (parent)
chain: GGAUCUUCUCGAUCUAACAAAAAAGACAAAUCUGCCACAAAGCUUGAGAGCAUCUUCGGAUGCAGAGGCGGCAGCCUUCGGUGGCGCGAUAGCGCCAACGUUCUCAACUAUGACACGCAAAACGCGUGCUCCGUUGAAUGGAGUUUAUCAUG

The text below walks through data of the RNAGym collection of RNA variant scans (doi:10.1073/pnas.2313332121).

This sample is rich in variants without activity.

In this data set the parent is B1. The data set is described as follows: polymerase ribozyme fitness, log enrichment relative to wild type (log ratio); higher = more active; in vitro selection for triplet polymerase activity. The method in brief:
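One round of in vitro selection, in triplicate, was applied to PCR-built, transcribed mutant libraries of each subunit of a heterodimeric triplet polymerase ribozyme. The steps were annealing with a biotinylated primer, partner subunit and triplets, incubation frozen at −7 °C, gel excision of extended constructs, streptavidin-bead capture and RT-PCR. Fitness is the logarithm, base 2, of genotype enrichment over wild-type enrichment from inverse-variance-weighted replicate averages of Illumina-sequenced inputs and outputs, keeping genotypes with ≥10 input reads and ≥1 read per output.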
Consider GGAUCUUCUCGAUCAAACAAACAAGAUAAAGCUGCCAUAAAGCUUGAGAGCAUCUUCGGAUGCAGAGGCGGCAGCCUUCGGUGGCGCGAUAUCGCCAACGUUCUCAACUAUGACACGCAAAACGCGUGCUCCUUUGAAUGGAGCUUAUCAUG [U15A A22C C27U U31G C38U G92U G133U U144C], for which the “polymerase ribozyme fitness (log ratio)” value was not above -4.2.
Turning to GGAUCUUCUCGAUUUAACAAAAAAGACAAAUCUGCCACAAAGCUUGAGAGCAUCUUCGGAUGCAGAGGCGACAGCCUUAGGUGGUGCGAUAGCGCCAACGUUCUCAACUAUGACACGCAAAACGCGUGCUACGUUGAAUGGAGUUUAUCAUG [C14U G71A C79A C85U C131A], the “polymerase ribozyme fitness (log ratio)” value was not above -4.2.
Take GGAUCUUCUCGAUCAAACAAAAAAGACACAUCUGCCAUAAAGCUUGAGAGCAUCUUCGGAUGCAGAGGCGGCAGCCUUCGGUGGCGCGAUAGCGCCAACGUUCUCAACUAUGACACGCUAAACGCAUGCUCCGUUGAAUGGAGAUUAUGAUG [U15A A29C C38U A119U G126A U144A C149G]: the “polymerase ribozyme fitness (log ratio)” value was not above -4.2.
Turning to GGAUCUUCUCGAUUUAACAAAAAAGACAAAUCUGCCACAAAGCUUGAUAGCAUCAUCGGAUGCAGAGGCGGCUGCCUUCGGUGGCGCGAUUGCGCCAAAGUUCUCAACUAUGACACGCAAAACGCGUGCUCCGUUGAGUGGAGCUUAUCAUG [C14U G48U U55A A73U A91U C99A A138G U144C], the “polymerase ribozyme fitness (log ratio)” value was not above -4.2.
GGAUCUUCUCGAUCAAACAGAAAAGACAAAUCUGCCACAAAGCAUGAGAGCAUCUUCGGAUGCAGAGGCGGCAGCCUUCGGUGGCGCGAUAGCGCCAACGUUCUCAACUAUGACACGCAACACGCGUGCUCCGUUUAAUGGAGUUUAUCAUG [U15A A20G U44A A121C G136U]: the “polymerase ribozyme fitness (log ratio)” value was not above -4.2.
Consider GGAUCUUCUCGAUUUAACAAAAAAGACAAAUCUUCCACAAAGCUUGAGAGCUUCUUCGGAUGCAGAGGCGGCAGCCUUCGCUGGCGCGAUAGAGCCAACGUUCUCAACUAUGACACGCAAAACGCGUGCUCCGUUGAAUGGAGUUUAUCAUG [C14U G34U A52U G81C C93A], for which the “polymerase ribozyme fitness (log ratio)” value was not above -4.2.
In the case of GGAUCUUCUCGAUUUAACAAAAAAGACAAAUCUGCCACAAAGCUUGAGAGCAUCUUCGGAUGCAGAGGCGGCAGCCUUCGGUGGCGCGAUAGCGCCAACGUUCUCAACUAUGACACGCAAAACGCGUGCUCCGUCGAAUGGAGUUUAUCAUG [C14U U135C], the “polymerase ribozyme fitness (log ratio)” value is -3.88.
For the variant GGAUCUUCUCGAUUUAACAAAAAAGACAAAUCUGCCACAAAGCUUGAGAGCAUCUUCGGAUGCAGAGGCGGCAGCCUUCGGUGGCGCGAUAGCGCCAACGUUCUGAACUAUGACACGCAAAACGCGUGCUCCGUUGAAUGGAGUUUAUCAUG [C14U C105G], the “polymerase ribozyme fitness (log ratio)” value was -3.25.
With GGAUCUUCUCGAUCAAACAAAGAAGACAAAUCUGCAACAAAGCUUGAGAGCAUCUUCGGAUGCAGAGGCGGUAGCCUUCGGUGGUGCGAUAGCGCCAACGUUCUCAACUAUGACACGCAAAACGCGUGCUCUGUUGAAUGGAGUUUAUCAUG [U15A A22G C36A C72U C85U C132U], the “polymerase ribozyme fitness (log ratio)” value is not above -4.2.
The result for GGAUCUUCUCGAUUGAACAAAAAAGACAAAUCUGCCACAAAGCUAGAGAGCAUCUUCUGAUGCAGAGGCGGCAGGCUUCGGUGGCGCGAUAGCGCCAACGUUCUCAACUAUGACACGCAAAACGCGUGCUCCGUCGAAUGGAGUUUAUCAUG [C14U U15G U45A G58U C75G U135C] reads not above -4.2; that for GGAUCUUCUCGAUUUAACAAAAAAGACAAAUCUGCCACAAAGCUUGAGAGCAUCUGCGGAUGCAGAGGCGGCAGCCUUCGGUUGCGCGAUAGCGUCAACGUUCUCAACUAUGACAUGCAAAACGCGUGCUCCGUUGAAUGGAGUUUAUCAUG [C14U U56G G83U C95U C116U], -3.87; that for GGAUCUUCUCGAUUUAACAAAAAAGACAAAUCUGCCACAAAGCUUGAGAGCAUCUUCGGAUCCAGAGGCGGCAGACUUCGGUGGCGCGAUAGGGCCAACGUUCUCAACUAUGACACGCAAAACGCGUGCUCCGUUGAAUGGAGUUUAUCAUG [C14U G62C C75A C93G], not above -4.2.
GGAUCUUCUCGAUUAAACAAAAAAGACAAAUCUGCCACAAAGCUUGAGAGCAUCUUAGGAUGCAGAGGCGGCAGCCUUCGGUGGCGCGAUAGUGCCAACGUUCUCAACUCUGACACGCAAAACGCGUGCUCCGUUGAAUGGAGUUUAUCAUG [C14U U15A C57A C93U A110C]: the “polymerase ribozyme fitness (log ratio)” value is not above -4.2.
The result for GGAUCUUCUCGAUUUAACAAAAAAGACAAAUCUGCCACAAAGCUUGAGACCAUCUUCGGAUGCAGAGGCGGCAGCAUUCGGUGACGCGAUAGCGCCAACGUUCUCAAGUAUGACACGCAAAACGCGUGAUCCGUUGAAUGGAGUUUAUCAUG [C14U G50C C76A G84A C108G C129A] reads not above -4.2; that for GGAUCUUCUCGAUUUAACAAAAAAGACAAAUCUUCCACAAAGCUUGAGAGCAUCUUCGGAUGCAGAGACGGCAGCCUUCGGUGGUGCGAUAGCGCCAACGUUCUCAACUAUGACACGCAAAACGCGUGCUCCGUUGAAUGGAGAUUAUAAUG [C14U G34U G68A C85U U144A C149A], not above -4.2; that for GGAUCUUCUCGAUUUAACAAAAAAGACAAAUCUGCCACAAAGCUUGAGAGCAUCUUCGGAUGCAGAGGCGGCAGCCUUCGGUGGAGCGAUAGCGCCAACGUUCUCAACUAUGACACGCAAAACGCGUGCUCCGUUGAAUAGAGUUUAUCAUG [C14U C85A G140A], not above -4.2.
The value for GGAUCUUCUCGAUUUAACAAAAAAGACAAAUCUGCCACAAAGCUUGAGAGCAUCUUCCGAUGCAGAGGCGGCAGCCUUCGGUGGUGCGGUAGCGCCAACGUUCUCAACUAUGACACGCAAAACGCGUGCUCCGUUAAAUGGAGUUUAUCAUG [C14U G58C C85U A89G G136A] was -3.44; that for GGAUCUUCUCGAUUUAACAAAAAAGACAAAUCUGCCACAAAGCUUGAGAGCAUCUUCGGAUGCAGAGGCGGAAGCCUUCGGUGGGGCGAUAGCGCCAACGUUCUCAACUAUGACACGCAAAACGCGUGCUCCUUUGAAUGGAGUUUAUCAUG [C14U C72A C85G G133U] was not above -4.2; that for GGAUCUUCUCGAUUUAACAAAAAAGACAAAUCUGCCACAAAGCUUGAGAGCAUCUUCGGAUGCAGAGGCGGCAACCUUCGGUGGCGCGAUAGCACCAACGUUCUCAACUAUGACACGCAAAGCGCGUGCUCCGUUGAAUGGAGUUUAUCAUG [C14U G74A G94A A122G] was not above -4.2.
